From the supplement of paper PMC8277577
Residue numbers refer to the chain shown, from its start. Recombinant human monoclonal antibodies (heavy:light variable regions). ELISA EC50 on the named antigen, from 10 µg/ml down; lower = stronger. No active / inactive call.

B1: C1026 (protein)
chain 1: QVQLVESGGGVVQPGKSLRLSCAASGFIFSSYSMHWVRQAPGKGLEWVAVVSNDGSGKFYADSVRGRFTIFRDNSKNTLYLQVSSLRAEDTAVYYCARDALTSISVLFDCWGQGTLVTVSS
chain 2: DIQMTQSPSSLSASLGDRVTITCRASQSISNYLNWYQQKPGKAPKLLIYGASSLQSGVPSRFSGSGSGTDFTLTISNLQPEDFATYFCQQSYSTPSVTFGGGTKVEIK
B2: C850 (protein)
chain 1: QVQLQESGPGLVKPSETLSLICSVSGVSVSSRNFFWSWIRQPPGKGLEWIGYMSYGGNTNYNPSLKSRVTISIDTSKNQFSLKLSSVTAADTAVYYCARETYYYDRSGYYSSDGFDYWGQGILVTVSS
chain 2: EIVLTQSPGTLSLSPGERATLSCRASQSITSSSLAWYQQKRGQPPRLLIYGASSRATGIPDRFSGSGSGTDLTLTISRLEPEDFAVYYCQQYGNSPYTFGQGTKLEIK
B3: C935 (protein)
chain 1: QVQLVESGGGVVQPGRSLRLSCAATGFTFSSYGMHWVRQAPGKGLEWVALIWYDGSNQYYVDSVKGRFTISRDNSKKTLYLQMNSLRVEDTAVYYCARDFSNSDMVTLSDAFDIWGQGTMVTVSS
chain 2: DIQLTQSPSFLSASVGDRVTIACRASQGISSYSSYLAWYQQKPGKAPKLLIYAASTLQSGVPSRFSGSGSGTEFTLTISSLQPEDFATYYCQQLNSYPLFTFGPGTKVDIK
B4: C941 (protein)
chain 1: QVQLVQSGAEVKKPGSSVKVSCKASGGTSRSYPISWVRQAPGQGLEWMGRIIPIVGTANYAQRFQGRVTITADESTGTAYMELSSLRSEDTAVYYCARNRGYSDYGSVYYFDYWGQGTLVTVSS
chain 2: QSVLTQPPSVSGAPGQRVTISCTGSSSNIGAGYDVHWYQQLPGAAPKLLIYRNINRPSGVPDRFSGSKSGTSASLAITGLQADDEADYYCQSYDSSLSGSVFGGGTKLTV
B5: C851 (protein)
chain 1: QLQLQESGPGLVKTSETLSLTCTVSGGSISSGNSYWGWIRQPPGKGLEWIGDIYYSGSTFYNPSLKSRLTISVDTSKNQFSLKLTSVTAADTAVYYCARRGGRTPVRFNYGGDVWGQGTTVTVSS
chain 2: DIQMTQSPSSLSASVGDRVTITCQASQDISRYLNWFQHKPGKAPKLLIYDASNLEAGVPSRFTGSGSGTEFTFTISSLQPEDFAIYFCQQYDSLPLTFGGGTKVEI
B6: C947 (protein)
chain 1: QVQLQESGPGLVRPSGTLSLTCAVTGGSISSSDCWSWVRQPPGKGLEWIGEICHGRTSNYNPSLKSPVSISVDKSKNQFSLILSSVTAADKAVYYCARSSRFLPPLPDAFDLWGQGTMVTVSS
chain 2: QSVLTQPPSVSGAPGQRVTISCTGSSSNIGAGYDVHWYKQLPGTAPKLLIYGNTNRPSGVPGRFSGSKSGTSASLAITGLQAEDEADYFCQSYDTRLSVVFGGGTKLT
B7: C939 (protein)
chain 1: QVQLVESGGGVVQPGRSLRLSCAASGFTFSSYAMHWVRQAPGKGLESVALISHDGSNKYHADSVKGRLTISRDTSKNTLYLQMDSLRPEDTAVYYCASGLLWFETAGGSGAPDYGMAVWGQGTTVTVSS
chain 2: DIQMTQSPSSLSASVGDRVTITCRASQSISTYLNWYQQKPGRAPKFLIYAASSLQSGVPSRFSGSGSGTDFTLIISGLQPEDFATYFCQQSYNTPLTFGGGTKVEIK
B8: C940 (protein)
chain 1: QVQLQESGSGLVKPSQTLSLTCAVSGGSASSGGYSWSWIRQPPGKGLEWIGYIYHSGSTYYNPSLKSRVTISLDRTKKQFSLKLSSVTAADTAVYYCARFCLSGSHYLFAFDIWGPGTMVTVSS
chain 2: QSALTQPASVSGSPGQSITISCTATSSDVGGYNFVSWYQQYPGKVPKLLIYDVGNRPSGVSNRFSGSKSGNTASLTISGLQAEDEADYYCSSYTNSSTFFGGGTKLTVL
B9: C945 (protein)
chain 1: QVQLVQSGAEVKKPGASVRISCKASGYTFTNYYMHWVRQAPGQGLEWMGIINPSGGSTTYAPKFQARVTMTRDTSTSTVYMELSSLRSDDTAVYYCARDYVLVPARSGMDVWGQGTTVTVS
chain 2: EIVLTQSPATLSLSPGERATLSCRASQSVSSYLAWYQQKPGQAPRLLIYDASNRATGIPARFSGSGSGTDFTLTISSLEPEDFAIYYCQQRSNWPYTFGQGTKLEIK
B10: C946 (protein)
chain 1: QVQLVQSGAEVKKPGASVKVSCKASGYTFTNYYIHWVRQAPGQGLEWMGIINPDGDSTSYVQKFQGRVTMTRDTSTSTVYMELSSLRSEDTAVYYCARDLVFVPATSAMDVWGKGTTVTVSS
chain 2: B9 chain 2 with I85V, P95L, Y96F, Q100P, L104V, E105D
B11: C936 (protein)
chain 1: EVQLVESGGGLIQPGGSLRLSCAASGFTVSSNYMSWVRQAPGKGLEWVSVIYSGGSTFYADSVKGRFTISRDNSKNTLYLQMNSLRAEDTAVYYCARDLGTGLFDYWGQGTLVTVSS
chain 2: DIQLTQSPSFLSASVGDRVTITCRASQGISSYLAWYQQKPGKAPKLLIYAASTLQSGVPSRFSGSGSGTEFTLTISSLQPEDFATYYCQQLDSYPPGTFGPGTKVDIK
B12: C937 (protein)
chain 1: B11 chain 1 with G26E, F27L, S53P
chain 2: B11 chain 2 with Y87F, Q90L, D92N, Y94N
B13: C951 (protein)
chain 1: QVQLQESGPRLVKPSGTLSLTCAVSGGSISTTNWWSWVRQPPGKGLEWIGEIHHSGNTNYNPSLKSRVTISVDRSKNQFSLKLSSVTAADTAVYFCARDGGRPGDPFDIWGQGTMVTVSS
chain 2: QSALTQPASVSGSPGQSITISCTGTSSDVGGYNYVSWYQQHPGKAPNLMIYDVSDRPSGVSNRFSGSKSGNTASLTISGLQAEDEADYYCNSFTSNSTRVFGTGTKVTV
B14: C938 (protein)
chain 1: QVQLVESGGGVVQPGRSLRLSCAASGFTFRSHAMHWVRQAPGKGLEWVAIISSDGFNKYYADSVKGRFTISRDNSKNTLYVHMNSLRVEDTAIYYCASGLLWFETREISGAPDYGMAVWGQGATVTVSS
chain 2: DIQMTQSPSSLSASVGDRVTITCRASQNISNFLNWYQQKPGKAPKLLIYAASSLQSGVPSRYSGSGSGTDFTLTISSLQAEDFATYYCQQSYSTPLTFGGGTKVEIK
B15: C948 (protein)
chain 1: EVQLVESGGGLVQPGGSLRLSCAASGFTFSRYDMHWVRQATGKGLEWVSIIGTAGDTYYPGSVKGRFTISRDNAKNSLFLQMNSLRAGDTAVYYCARANYDSSGYHNWFDPWGQGTLVTVSS
chain 2: DIQMTQSPSSLSASIGDRVTITCRASQNINSYLNWYQQKPGKAPKLLIYAASSLQSGVPSRFSGSGSGTDFTLTINSLQPEDFATYYCQQSYSMPSWTFGQGTKVEI
B16: C1028 (protein)
chain 1: QVQLVESGGGVVQPGRSLRLSCADSGFTFSSSGMHWVRQAPGKGLEWVGVISYDGGNKYYADSVKGRFTISRDNSKNTLYLQMNSLRAEDTAVYYCAKDTPGGDDIMTGWGLYGMDVWGQGTTVTVSS
chain 2: DIQMTQSPSSLSASVEDRVTITCRASQSISSYLNWYQQKPGKAPKLLIYAAISLQSGVPSRFSGSGSGTEFTLTISSLQPEDFATYYCQQSYTTPWAFGQGTKVEIK
B17: C949 (protein)
chain 1: QVQLQESGPGLVKPLQTLSLTCTVSGGSISNGDYYWSWIRQSPGKGLEWIGNIFYSGATYFNPSLKSRVTLSVDTSKNQFSLKLSSVTAADTAVYYCARVVRVLPAASVDCWGQGTLVTVSS
chain 2: QSALTQPRSVSGSPGQSVPISCTGTSSDVGGYDYVSWYQQHPGKAPKLIIYDVSERPSGVPDRFSGSKSGNTASLTISGLQAEDEATYYCCSYAGTSVMFGGGTKLTVL
B18: C1027 (protein)
chain 1: EVQLVESGGGLVQPGGSLRLSCAASGFIVTTNYMSWVRQAPGKGLEWVSLIYPGGSTFYADSVEGRFTISRDNSKNTLYLQVNSLRVEDTAVYYCARDTFGRGDDHWGQGTLVTVSS
chain 2: DIQMTQSPSSLSASVGDRVTITCQASQDINIYLNWYQQRPGKAPKLLIYDASNLQTGVPSRFSGSGSGTDFTITISSLQPEDIATYYCQQYDNLPRSFGQGTKLEI
B19: C1025 (protein)
chain 1: EVQLVESGGGLVQPGRSLRLSCAASGFTFDDYAMHWVRQVPGKGLEWVSGVSWNGDSVGYADSMEGRFTISRDNAKNSLYLQMNSLRTEDTALYYCAKGVDYSSSSNFDFWGQGTLVTVSS
chain 2: DIQMTQSPSSVSASVGDRVTITCRASQGISSWLAWYQQKPGKAPKLLISLASSLQSGVPSRFSGSGSETDFTLIISSLQPEDFATYYCQQSSSFPLTFGGGTKVEIK

Molecular target: SARS-CoV-2 Wuhan-Hu-1 spike receptor-binding domain
Test: ELISA binding EC50; higher = weaker binding; ELISA of recombinant human antibody on coated antigen, from 10 µg/ml in fourfold dilutions; four-parameter fit.

Binder | ELISA binding EC50 [ng/mL]
B1 | 2.5
B2 | 3.7
B3 | 2.86
B4 | 0.88
B5 | 2.83
B6 | 2.08
B7 | 3.62
B8 | 1.79
B9 | 3.13
B10 | 3.82
B11 | 1.56
B12 | 0.97
B13 | 0.81
B14 | 2.63
B15 | 3.26
B16 | 3.58
B17 | 2.33
B18 | 2.42
B19 | 2.51
